Source: patent US20260274891A1, “¿ OPIOID RECEPTOR AGONIST AND USE THEREOF” (CHENGDU AODA BIOTECHNOLOGY CO., LTD., priority 2023, published 2026)
Like-named read-outs stand apart in the source and are kept apart here. Not every detail of the peptide structures is certain; ends, links or a residue may be inferred. Square brackets hold non-standard residues; d marks the D form. Side chains are listed from the residue outwards. Peptide text beside a SMILES is read from it. * marks the point of attachment. X16 = NCCCC[C@H](NC(=O)COCCOCCOCCNC(=O)C1(N)CCN(*)CC1)C(N)=O; X11 = NCCCC[C@@H](NC(=O)COCCOCCNC(=O)C1(N)CCN(*)CC1)C(N)=O; X20 = NCCCC[C@@H](NC(=O)COCCOCCNC(=O)C1(N)CCN(*)CC1)C(=O)O; X12 = CCOc1ccc(C[C@@H](NC(=O)[C@H](N)Cc2ccccc2)C(=O)*)cc1; X15 = NCCCC[C@H](NC(=O)COCCOCCNC(=O)C1(N)CCN(*)CC1)C(=O)O; X2 = NCCCC[C@H](NC(=O)COCCOCCNC(=O)C1(N)CCN(*)CC1)C(N)=O; X13 = NCCCC[C@@H](NC(=O)COCCNC(=O)C1(N)CCN(*)CC1)C(=O)O; X17 = NCCCC[C@H](NC(=O)COCCNC(=O)C1(N)CCN(*)CC1)C(=O)O; X24 = NCCCC[C@H](NC(=O)COCCNC(=O)C1(N)CCN(*)CC1)C(N)=O; X9 = NCCCC[C@@H](NC(=O)COCCNC(=O)C1(N)CCN(*)CC1)C(N)=O; X10 = NCCCC[C@@H](NC(=O)C1(N)CCN(*)CC1)C(=O)O; X4 = NCCCC[C@H](NC(=O)C1(N)CCN(*)CC1)C(=O)O; dAla(cPr) = N[C@H](CC1CC1)C(=O)O; Api = NC1(C(=O)O)CCNCC1

Target: T1, human κ opioid receptor (OPRK1) (Homo sapiens, UniProt P41145)
T1 construct: expressed in transfected cells; host or cells: CHO-K1
Assay: Determination of activities of κ receptor agonists: inhibition of forskolin-stimulated cAMP release (HTRF) in stably transfected CHO-K1 cells
Format: cell-based
Details: for EC50: CHO-K1 cell line stably expressing opioid receptors, forskolin-stimulated cAMP, HTRF; for Relative Activity %: relative to Difelikefalin = 100.0
Source text: Gi-coupled human κ opioid receptor (OPRK1), upon stimulation with its specific opioid receptor agonists, can inhibit the intracellular adenylate cyclase pathway, and decrease cAMP levels. Forskolin can stimulate cAMP release in cell lines highly expressing opioid receptors. By stimulating cell lines stably transfected with opioid receptors, the inhibitory effect of a test compound on forskolin-stimulated cAMP release can be measured to determine the activity of the compound. The relative light units (RLU) from the cells after stimulation with different doses were measured via the homogeneous time-resolved fluorescence technique (HTRF), and the EC50 value of the agonist was subsequently calculated. This activity determination method is a currently commonly used method for determining the activities of opioid receptor agonists at home and abroad.
A CHO-K1 cell line stably expressing opioid receptors was used. Stably transfected cells were stimulated with various concentrations of agonists (under the stimulation of a certain concentration of forskolin). The relative light units from the cells after stimulation with different doses were measured, from which the EC50 value of the agonist was subsequently obtained by calculation.

T1 sequence (P41145 whole entry): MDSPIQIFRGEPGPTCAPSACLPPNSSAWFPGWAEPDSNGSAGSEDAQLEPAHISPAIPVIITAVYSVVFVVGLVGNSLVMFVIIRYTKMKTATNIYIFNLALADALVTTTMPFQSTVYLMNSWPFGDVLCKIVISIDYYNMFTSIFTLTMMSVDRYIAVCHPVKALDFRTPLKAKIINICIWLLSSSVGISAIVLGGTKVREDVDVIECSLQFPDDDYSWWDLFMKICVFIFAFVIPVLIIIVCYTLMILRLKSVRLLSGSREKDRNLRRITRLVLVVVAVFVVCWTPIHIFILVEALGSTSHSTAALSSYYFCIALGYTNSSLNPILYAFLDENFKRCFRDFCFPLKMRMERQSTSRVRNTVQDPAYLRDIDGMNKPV

Compound | EC50 | Relative Activity % | EC50 (read-out: EC50)
CCOc1ccc(C[C@@H](NC(=O)[C@H](N)Cc2ccccc2)C(=O)N[C@H](CC(C)C)C(=O)N[C@H](CCCCN)C(=O)N2CCC(N)(C(=O)NCC(=O)NCC(=O)NCC(=O)NCC(=O)N[C@@H](CCCCN)C(=O)O)CC2)cc1 [Compound 60, D-Phe-D-Tyr(Et)-D-Leu-D-Lys-4-aminopiperidine-4-carboxamide-Gly-Gly-Gly-Gly-Lys-OH] (H-[Api]([dK-dL-X12])GGGGK-OH) | 0.0713 nM | 851.6% | 
CCOc1ccc(C[C@@H](NC(=O)[C@H](N)Cc2ccccc2)C(=O)N[C@H](CC(C)C)C(=O)N[C@H](CCCCN)C(=O)N2CCC(N)(C(=O)NCC(=O)NCC(=O)NCC(=O)NCC(=O)N[C@H](CCCCN)C(=O)O)CC2)cc1 [Compound 62, D-Phe-D-Tyr(Et)-D-Leu-D-Lys-4-aminopiperidine-4-carboxamide-Gly-Gly-Gly-Gly-D-Lys-OH] (H-[Api]([dK-dL-X12])GGGG[dK]-OH) | 0.0701 nM | 866.2% | 
CCOc1ccc(C[C@@H](NC(=O)[C@H](N)Cc2ccccc2)C(=O)N[C@H](CC(C)C)C(=O)N[C@H](CCCCN)C(=O)N2CCC(N)(C(=O)NCC(=O)NCC(=O)NCC(=O)NCC(=O)NCC(=O)N[C@@H](CCCCN)C(N)=O)CC2)cc1 [Compound 63, D-Phe-D-Tyr(Et)-D-Leu-D-Lys-4-aminopiperidine-4-carboxamide-Gly-Gly-Gly-Gly-Gly-Lys-NH2] (H-[Api]([dK-dL-X12])GGGGGK-NH2; N-terminus assumed) | 0.0905 nM | 670.9% | 
CCOc1ccc(C[C@@H](NC(=O)[C@H](N)Cc2ccccc2)C(=O)N[C@H](CC(C)C)C(=O)N[C@H](CCCCN)C(=O)N2CCC(N)(C(=O)NCC(=O)NCC(=O)NCC(=O)NCC(=O)NCC(=O)N[C@@H](CCCCN)C(=O)O)CC2)cc1 [Compound 64, D-Phe-D-Tyr(Et)-D-Leu-D-Lys-4-aminopiperidine-4-carboxamide-Gly-Gly-Gly-Gly-Gly-Lys-OH] (H-[Api]([dK-dL-X12])GGGGGK-OH) | 0.0899 nM | 675.4% | 
CCOc1ccc(C[C@@H](NC(=O)[C@H](N)Cc2ccccc2)C(=O)N[C@H](CC2CC2)C(=O)N[C@H](CCCCN)C(=O)N2CCC(N)(C(=O)N[C@@H](CCCCN)C(=O)O)CC2)cc1 [Compound 70, D-Phe-D-Tyr(Et)-D-cyclopropylalanine-D-Lys-4-aminopiperidine-4-carboxamide-Lys-OH] (H-[dF][dY](Et)[dAla(cPr)][dK]-X4) |  | 1389.5% | 0.0437 nM
CCOc1ccc(C[C@@H](NC(=O)[C@H](N)Cc2ccccc2)C(=O)N[C@H](CC2CC2)C(=O)N[C@H](CCCCN)C(=O)N2CCC(N)(C(=O)N[C@H](CCCCN)C(=O)O)CC2)cc1 [Compound 72, D-Phe-D-Tyr(Et)-D-cyclopropylalanine-D-Lys-4-aminopiperidine-4-carboxamide-D-Lys-OH] (H-[dF][dY](Et)[dAla(cPr)][dK]-X10) | 0.0426 nM | 1425.4% | 
CCOc1ccc(C[C@@H](NC(=O)[C@H](N)Cc2ccccc2)C(=O)N[C@H](CC2CC2)C(=O)N[C@H](CCCCN)C(=O)N2CCC(N)(C(=O)NCCOCC(=O)N[C@@H](CCCCN)C(N)=O)CC2)cc1 [Compound 73, D-Phe-D-Tyr(Et)-D-cyclopropylalanine-D-Lys-4-aminopiperidine-4-carboxamide-PEG1CH2CO-Lys-NH2] (H-[dF][dY](Et)[dAla(cPr)][dK]-X24) |  | 1297.4% | 0.0468 nM
CCOc1ccc(C[C@@H](NC(=O)[C@H](N)Cc2ccccc2)C(=O)N[C@H](CC2CC2)C(=O)N[C@H](CCCCN)C(=O)N2CCC(N)(C(=O)NCCOCC(=O)N[C@@H](CCCCN)C(=O)O)CC2)cc1 [Compound 74, D-Phe-D-Tyr(Et)-D-cyclopropylalanine-D-Lys-4-aminopiperidine-4-carboxamide-PEG1CH2CO-Lys-OH] (H-[dF][dY](Et)[dAla(cPr)][dK]-X17) |  | 1328.7% | 0.0457 nM
CCOc1ccc(C[C@@H](NC(=O)[C@H](N)Cc2ccccc2)C(=O)N[C@H](CC2CC2)C(=O)N[C@H](CCCCN)C(=O)N2CCC(N)(C(=O)NCCOCC(=O)N[C@H](CCCCN)C(N)=O)CC2)cc1 [Compound 75, D-Phe-D-Tyr(Et)-D-cyclopropylalanine-D-Lys-4-aminopiperidine-4-carboxamide-PEG1CH2CO-D-Lys-NH2] (H-[dF][dY](Et)[dAla(cPr)][dK]-X9) | 0.0473 nM | 1283.7% | 
CCOc1ccc(C[C@@H](NC(=O)[C@H](N)Cc2ccccc2)C(=O)N[C@H](CC2CC2)C(=O)N[C@H](CCCCN)C(=O)N2CCC(N)(C(=O)NCCOCC(=O)N[C@H](CCCCN)C(=O)O)CC2)cc1 [Compound 76, D-Phe-D-Tyr(Et)-D-cyclopropylalanine-D-Lys-4-aminopiperidine-4-carboxamide-PEG1CH2CO-D-Lys-OH] (H-[dF][dY](Et)[dAla(cPr)][dK]-X13) | 0.0466 nM | 1303.0% | 
CCOc1ccc(C[C@@H](NC(=O)[C@H](N)Cc2ccccc2)C(=O)N[C@H](CC2CC2)C(=O)N[C@H](CCCCN)C(=O)N2CCC(N)(C(=O)NCCOCCOCC(=O)N[C@@H](CCCCN)C(N)=O)CC2)cc1 [Compound 77, D-Phe-D-Tyr(Et)-D-cyclopropylalanine-D-Lys-4-aminopiperidine-4-carboxamide-PEG2CH2CO-Lys-NH2] (H-[dF][dY](Et)[dAla(cPr)][dK]-X2) |  | 1102.0% | 0.0551 nM
CCOc1ccc(C[C@@H](NC(=O)[C@H](N)Cc2ccccc2)C(=O)N[C@H](CC2CC2)C(=O)N[C@H](CCCCN)C(=O)N2CCC(N)(C(=O)NCCOCCOCC(=O)N[C@@H](CCCCN)C(=O)O)CC2)cc1 [Compound 78, D-Phe-D-Tyr(Et)-D-cyclopropylalanine-D-Lys-4-aminopiperidine-4-carboxamide-PEG2CH2CO-Lys-OH] (H-[dF][dY](Et)[dAla(cPr)][dK]-X15) |  | 1141.4% | 0.0532 nM
CCOc1ccc(C[C@@H](NC(=O)[C@H](N)Cc2ccccc2)C(=O)N[C@H](CC2CC2)C(=O)N[C@H](CCCCN)C(=O)N2CCC(N)(C(=O)NCCOCCOCC(=O)N[C@H](CCCCN)C(N)=O)CC2)cc1 [Compound 79, D-Phe-D-Tyr(Et)-D-cyclopropylalanine-D-Lys-4-aminopiperidine-4-carboxamide-PEG2CH2CO-D-Lys-NH2] (H-[dF][dY](Et)[dAla(cPr)][dK]-X11) | 0.0549 nM | 1106.0% | 
CCOc1ccc(C[C@@H](NC(=O)[C@H](N)Cc2ccccc2)C(=O)N[C@H](CC2CC2)C(=O)N[C@H](CCCCN)C(=O)N2CCC(N)(C(=O)NCCOCCOCC(=O)N[C@H](CCCCN)C(=O)O)CC2)cc1 [Compound 80, D-Phe-D-Tyr(Et)-D-cyclopropylalanine-D-Lys-4-aminopiperidine-4-carboxamide-PEG2CH2CO-D-Lys-OH] (H-[dF][dY](Et)[dAla(cPr)][dK]-X20) | 0.0545 nM | 1114.1% | 
CCOc1ccc(C[C@@H](NC(=O)[C@H](N)Cc2ccccc2)C(=O)N[C@H](CC2CC2)C(=O)N[C@H](CCCCN)C(=O)N2CCC(N)(C(=O)NCCOCCOCCOCC(=O)N[C@@H](CCCCN)C(N)=O)CC2)cc1 [Compound 81, D-Phe-D-Tyr(Et)-D-cyclopropylalanine-D-Lys-4-aminopiperidine-4-carboxamide-PEG3CH2CO-Lys-NH2] (H-[dF][dY](Et)[dAla(cPr)][dK]-X16) |  | 1080.4% | 0.0562 nM
